This is an account of results in the supplement of paper PMC4604168 (melanoma cell lines).

Molecules are shown by their SMILES. The list shows a part of the results. Many values rest on one well or one pass, so single values are uncertain.

Among the test systems are A101D; A2058; A375.
What all share (experiment): cell count relative to DMSO control; melanoma cells; higher = more viable cells
What all share (conditions): library dose: standard library concentration; 72 h
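Note: cells treated in 1,536-well plates, then fixed and DAPI-stained, with nuclei counted from automated high-throughput microscope images.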

Turning to `Cn1c(=O)n(-c2ccc(C(C)(C)C#N)cc2)c2c3cc(-c4cnc5ccccc5c4)ccc3ncc21` + Nc1cccc2c1CN(C1CCC(=O)NC1=O)C2=O [lenalidomide] (first compound 0.02 µM, partner dose 5 µM), the figures for the cell count in the test on A101D, in the test with A2058 and in the test on A375 were 75.7%, 67.5% and 82.9%, respectively.

Take `Cc1cc(Nc2cc(N3CCN(C)CC3)nc(/C=C/c3ccccc3)n2)n[nH]1` + COc1cc2c(Oc3ccc4[nH]c(C)cc4c3F)ncnc2cc1OCCCN1CCCC1 [cediranib] (first compound 0.2 µM, partner dose 2 µM): the cell count with A101D stood at 73.8%; in the test on A2058, 75.5%; in the test on A375 it was 112%.

Take `COc1ccc(C2=N[C@@H](c3ccc(Cl)cc3)[C@@H](c3ccc(Cl)cc3)N2C(=O)N2CCNC(=O)C2)c(OC(C)C)c1` [Nutlin-3] + Cc1nc(Nc2ncc(C(=O)Nc3c(C)cccc3Cl)s2)cc(N2CCN(CCO)CC2)n1 [dasatanib] (first compound 0.5 µM, partner dose 0.02 µM): the cell count turned out to be 65.3% in the test on A101D, 68.2% in the test with A2058 and 77.2% with A375.

In the case of `Cc1cc(Nc2cc(N3CCN(C)CC3)nc(/C=C/c3ccccc3)n2)n[nH]1` + CC(C)(C)c1cnc(CSc2cnc(NC(=O)C3CCNCC3)s2)o1 [SNS-032] (first compound 0.2 µM, partner dose 0.05 µM), the cell count amounted to 64.9% with A101D, 88.5% with A2058 and 85.7% with A375.

Regarding `CC(C)C[C@H](NC(=O)[C@H](Cc1ccccc1)NC(=O)c1cnccn1)B(O)O` [Bortezomib] + CN(NC(=O)CC(=O)NN(C)C(=S)c1ccccc1)C(=S)c1ccccc1 [STA4783] (first compound 0.005 µM, partner dose 0.03 µM), the cell count with A101D was found to be 16.6%; with A2058, 12%; in the test on A375, 87.9%.
